In PubChem BioAssay (NCATS):
“And” between values parts separate entries of the source, which are not always exact repeats. Identical values can stand only once. This list was built around the results that the source calls inconclusive (neither active nor inactive); the mix of calls is not that of the screen. For part of these data: Potencies beside an inconclusive call are fits to weak or partial responses and may not hold up. The source made the active and inactive calls. Calls follow the shape of the dose curve; as a rule, active = well fitted curve in the direction sought with a large enough effect; inconclusive = small, poorly fitted or top-dose-only effect, or another doubt; inactive = no such curve, though single readings can be large; an effect the other way counts as inactive or inconclusive.

What was measured:
[1] = qHTS of pediatric cancer cell lines to identify multiple opportunities for drug repurposing: Primary screen for A673 cells (AID 1347092); conditions: A673 Ewing sarcoma viability, CellTiter-Glo ATP luminescence, 48 h; activity change, negative = cytotoxic: at 46 µM (top of the series); also: nearly all actives have a fitted effect of over 45% in size
Outline: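 Luminescence from CellTiter-Glo, taken after 15 min at room temperature, served as the proxy for metabolically active cells following 48 h treatment. Both potency and efficacy were taken from curves fitted to the titration data.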

[2] = Primary qHTS for inhibitors of nuclear receptor binding SET domain protein 2 (NSD2) in an RCH-ACV wild type WT cells (2C) (AID 1645877); conditions: activity change, negative = cell killing: at 44.9 µM (top of the series); also: nearly all actives have a fitted effect of over 70% in size; as to activity change, negative = cell killing: % is scaled to controls: 0 for no effect and ±100 for the full control effect
HeLa = assay: Primary qHTS to identify gynecologic anti-cancer compounds using libraries of approved drugs and bioactive compounds (AID 1345084); conditions: Gynecologic cancer cell panel viability, ATPlite luminescence, 48 h; series mostly up to 57.5 µM; also: nearly all actives have a fitted effect of over 55% in size; as to activity change, negative = cytotoxicity: % is scaled to controls: 0 for no effect and ±100 for the full control effect
Outline: (§1)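 Cytotoxicity screen measuring ATP content by luciferase luminescence. Each compound is applied at five concentrations for 48 h at 37 C with 5% CO2.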

[3] = qHTS of pediatric cancer cell lines to identify multiple opportunities for drug repurposing: Confirmatory screen for Saos-2 cells (AID 1347127); also: nearly all actives have a fitted effect of over 60% in size
Outline: (§2)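 Cells (500-1,000/well) rested 5 h, then received compounds for 48 h; metabolically active cells were measured by CellTiter-Glo luminescence. Final concentrations spanned up to 46 µM (MIPE, 11-point) or 0.59 nM-46 µM (NPC, 8-point) in primary screens, 11-point in follow-ups.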

[4] = qHTS of pediatric cancer cell lines to identify multiple opportunities for drug repurposing: Confirmatory screen for OHS-50 cells (AID 1347128);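 also: compound exposure lasted 48 h at 37 degrees C; nearly all actives have a fitted effect of over 55% in size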
Outline: as §2

[5] = Quantitative High-Throughput drug screen in 47 multiple myeloma cell lines against the NCATS MIPE library collection: MM1R_ATCC cell viability assay (AID 1918981); also: nearly all actives have a fitted effect of over 35% in size
Outline: (§3)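 Inhibition of viability over 48 h was scored by ATP content (CellTiter-Glo) in 500-cell wells. Zero and full viability were defined by media-only and DMSO-only wells.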

[6] = Quantitative High-Throughput drug screen in 47 multiple myeloma cell lines against the NCATS MIPE library collection: XG1_PLB cell viability assay (AID 1919866); also: nearly all actives have a fitted effect of over 35% in size
Outline: as §3

[7] = Quantitative High-Throughput drug screen in 47 multiple myeloma cell lines against the NCATS MIPE library collection: VP6_DJ cell viability assay (AID 1919867); conditions: ATP luminescence, 48 h; viability (% of DMSO): at 45.8 µM (top of the series); also: nearly all actives have a fitted effect of over 40% in size
Outline: as §3

[8] = Quantitative High-Throughput drug screen in 47 multiple myeloma cell lines against the NCATS MIPE library collection: PE2_PLB cell viability assay (AID 1919869); conditions: PE2_PLB myeloma cells viability, ATP luminescence, 48 h; viability (% of control): at 45.8 µM (top of the series); also: nearly all actives have a fitted effect of over 35% in size
Outline: as §3

CAOV3 = assay: Primary qHTS to identify gynecologic anti-cancer compounds using libraries of approved drugs and bioactive compounds (AID 1345084); conditions: Gynecologic cancer cell panel viability, ATPlite luminescence, 48 h; series mostly up to 57.5 µM; also: nearly all actives have a fitted effect of over 55% in size; as to activity change, negative = cytotoxicity: % is scaled to controls: 0 for no effect and ±100 for the full control effect
Outline: as §1

Hek293T = assay: as above; conditions: Gynecologic cancer cell panel viability, ATPlite luminescence, 48 h, control line for the selectivity index; series mostly up to 57.5 µM
Outline: as §1

Tov-21-G = assay: as above; conditions: Gynecologic cancer cell panel viability, ATPlite luminescence, 48 h; activity change, negative = cytotoxicity: at 57.5 µM (top of the series)
Outline: as §1

[9] = qHTS of pediatric cancer cell lines to identify multiple opportunities for drug repurposing: Confirmatory screen for RD cells (AID 1347124); conditions: RD rhabdomyosarcoma cell viability; activity change, negative = cytotoxic: at 45.9 µM (top of the series) unless noted;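 also: cells exposed to compound for 48 h before viability readout; nearly all actives have a fitted effect of over 65% in size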; as to activity change, negative = cytotoxic: % is scaled to controls: 0 for no effect and ±100 for the full control effect
Outline: as §2

[10] = Quantitative High-Throughput drug screen in 47 multiple myeloma cell lines against the NCATS MIPE library collection: JIM3_ECACC cell viability assay (AID 1918963; also: nearly all actives have a fitted effect of over 35% in size)
Outline: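 Luminescent ATP measurement with CellTiter-Glo gives viability, scaled between DMSO-only wells (100%) and media-only wells (0%). Cells, 500 per well, faced library compounds for 48 hours at 37C.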

[11] = Quantitative High-Throughput drug screen in 47 multiple myeloma cell lines against the NCATS MIPE library collection: INA6_PLB cell viability assay (AID 1918965; also: nearly all actives have a fitted effect of over 55% in size)
Outline: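 Steps: seed 500 cells per well; pin-transfer MIPE 4.0 library; incubate 48 h at 37C, 5% CO2, humidified; add CellTiter-Glo, 5 min room temperature; read luminescence.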

[12] = Quantitative High-Throughput drug screen in 47 multiple myeloma cell lines against the NCATS MIPE library collection: JJN3_DSMZ cell viability assay (AID 1918966; also: nearly all actives have a fitted effect of over 50% in size)
Outline: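 Myeloma cell lines, 500 cells per well, exposed to MIPE 4.0 library compounds for 48 h at 37C, 5% CO2. Viability from ATP by CellTiter-Glo luminescence; normalised to DMSO (100%) and media-only (0%) wells.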

[13] = Quantitative High-Throughput drug screen in 47 multiple myeloma cell lines against the NCATS MIPE library collection: OPM1_PLB cell viability assay (AID 1918989); also: nearly all actives have a fitted effect of over 40% in size
Outline: as §3

[14] = Quantitative High-Throughput drug screen in 47 multiple myeloma cell lines against the NCATS MIPE library collection: OCIMY5_PLB cell viability assay (AID 1918988); also: nearly all actives have a fitted effect of over 65% in size
Outline: as §3

[15] = qHTS of pediatric cancer cell lines to identify multiple opportunities for drug repurposing: Confirmatory screen for NB1643 cells (AID 1347109); also: nearly all actives have a fitted effect of over 45% in size
Outline: as §2

[16] = qHTS of pediatric cancer cell lines to identify multiple opportunities for drug repurposing: Confirmatory screen for SJ-GBM2 cells (AID 1347116); also: nearly all actives have a fitted effect of over 60% in size;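 as to activity change, negative = cytotoxic: plate controls were DMSO for no effect and bortezomib for full effect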
Outline: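 Viability measured as metabolically active cells via CellTiter-Glo luminescence following 48 hours of compound exposure, 11-point dilutions in confirmatory testing. 500-1,000 cells/well plated 5 hours before dosing; controls were DMSO and 2.3 µM bortezomib.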
Potency is read from the fitted curve at half-maximal effect; tags tell the direction and shape of the fitted curve.

COC(=O)C1=C(C)NC(C)=C(C(=O)OC(C)(C)CN(C)CCC(c2ccccc2)c2ccccc2)C1c1cccc([N+](=O)[O-])c1 (stereo unspecified)
inconclusive: Potency [1] 21.1 µM [cytotoxic, single point] | Potency [2] 21.1 µM [inhibitor, single point] | Potency (HeLa) 35.5 µM [cytotoxic, single point]

CC[C@@H]1C(=O)N(C)c2cnc(Nc3ccc(C(=O)NC4CCC(N5CCN(CC6CC6)CC5)CC4)cc3OC)nc2N1C(C)C (stereo partly specified)
inactive: Potency [3]
inconclusive: Potency [4] 0.0369 µM [rising, full curve, poor fit] | Potency (HeLa) 100 nM [cytotoxic, full curve, poor fit] and 112 µM | Potency (Hek293T) 31.6 µM and 25.1 µM [cytotoxic, partial curve, poor fit] | Potency (Tov-21-G) 158 nM [cytotoxic, partial curve, poor fit] and 39.8 µM
active: Potency [1] 0.0935 µM | Potency [5] 1.87 µM | Potency [6] 0.0187 µM | Potency [7] 1.66 µM | Potency [8] 8.33 µM | Potency (CAOV3) 12.6 µM

C[C@@H](Oc1cc(-n2cnc3ccc(CN4CCN(C)CC4)cc32)sc1C(N)=O)c1ccccc1C(F)(F)F
active: Potency [4] 0.0759 µM | Potency [10] 0.0372 µM | Potency [12] 18.7 µM
inconclusive: Potency [9] 0.0208 µM [cytotoxic, full curve, poor fit] | Potency [3] 0.0603 µM [cytotoxic, full curve, poor fit] | Potency [11] 0.0209 µM [cytotoxic, full curve, poor fit] | Potency [13] 0.0264 µM [cytotoxic, full curve, poor fit] | Potency [8] 23.5 µM [cytotoxic, partial curve, poor fit]

Cc1cncc2cccc(S(=O)(=O)N3CCCN(C(=O)CN)C[C@@H]3C)c12
inconclusive: Potency [12] 18.7 µM [cytotoxic, partial curve, poor fit] | Potency [8] 20.9 µM [cytotoxic, partial curve] | Potency (CAOV3) 3.16 µM [cytotoxic, full curve] | Potency (HeLa) 3.55 µM [cytotoxic, partial curve, poor fit]
inactive: Potency [10] | Potency [13] | Potency [7]
active: Potency [14] 1.48 µM

COc1ccc(C(=O)CC2(O)C(=O)Nc3c(Cl)ccc(Cl)c32)cc1 (stereo unspecified)
inconclusive: Potency (Hek293T) 10 µM [cytotoxic, partial curve] | Potency (Tov-21-G) 8.91 µM [cytotoxic, full curve]
active: Potency [1] 2.35 µM | Potency [14] 1.87 µM

COc1c(OCCCN2CCOCC2)ccc2c3n(c(=NC(=O)c4cnc(N)nc4)nc12)CCN3
active: Potency [15] 2.29 µM | Potency [16] 2.04 µM | Potency (HeLa) 1 µM
inconclusive: activity change, negative = cytotoxic [9] -91.5% [at 29.5 µM] | Potency [10] 0.0911 µM [cytotoxic, full curve] | Potency (Hek293T) 0.126 µM [cytotoxic, full curve] | Potency (Tov-21-G) 0.708 µM [cytotoxic, full curve]

CC(C)Nc1cc(-c2c[nH]c(C(=O)N[C@H](CO)c3cccc(Cl)c3)c2)c(Cl)cn1
inconclusive: Potency [2] 20.6 µM [inhibitor, single point] | Potency (Tov-21-G) 12.6 µM [cytotoxic, partial curve]
inactive: Potency (Hek293T)

CN([C@@H](Cc1ccc(OS(=O)(=O)c2cccc3cnccc23)cc1)C(=O)N1CCN(c2ccccc2)CC1)S(=O)(=O)c1cccc2cnccc12
inactive: activity change, negative = cell killing [2] 9.55% [at 4.96 µM]

COc1cc2ncnc(Nc3ccc(F)c(Cl)c3)c2cc1OCCCN1CCOCC1
active: Potency [15] 38 µM | Potency [4] 38 µM | Potency [10] 13.6 µM | Potency [11] 5.4 µM | Potency [14] 2.15 µM | Potency [7] 6.79 µM
inconclusive: Potency [3] 42.7 µM [cytotoxic, partial curve] | Potency [2] 18.6 µM [inhibitor, partial curve, poor fit] | Potency (CAOV3) 8.91 µM and 316 nM [cytotoxic, full curve, poor fit] | Potency (HeLa) 25.1 µM [cytotoxic, single point] | Potency (Tov-21-G) 15.8 µM [cytotoxic, partial curve, poor fit] and 4.47 µM [cytotoxic, full curve]

CN(C)CC(C)(C)CNc1nn2c(-c3ccccc3)nnc2cc1C1CCC1
inconclusive: Potency [16] 3.69 µM [cytotoxic, full curve, poor fit] | Potency [10] 18.7 µM [cytotoxic, partial curve] | Potency [12] 0.0021 µM [rising, full curve, poor fit] | Potency [5] 1.48 µM [cytotoxic, full curve, poor fit] | Potency [14] 33.2 µM [cytotoxic, single point] | Potency [13] 0.0148 µM [rising, full curve, poor fit] | Potency [6] 2.09 µM [cytotoxic, full curve]
inactive: Potency [9] | Potency [4] | Potency [2]

O=C(CCCN1CCN(c2ccccn2)CC1)c1ccc(F)cc1
inconclusive: activity change, negative = cytotoxic [1] -35.3% [cytotoxic]

CCOC(CN1CCN(CC(C)C(=O)c2ccccc2)CC1)c1ccccc1 (stereo unspecified)
inconclusive: Potency [2] 14.6 µM [inhibitor, single point]

Cc1cnc(-c2cnc(NCCNc3ccc(C#N)cn3)nc2-c2ccc(Cl)cc2Cl)[nH]1
active: Potency [14] 20.9 µM
inconclusive: Potency [4] 36.9 µM [cytotoxic, single point] | Potency [10] 14.8 µM [cytotoxic, partial curve] | Potency [12] 14.8 µM [cytotoxic, partial curve, poor fit] | Potency [5] 29.6 µM [cytotoxic, single point] | Potency [13] 18.7 µM [cytotoxic, partial curve] | Potency [6] 14.8 µM [cytotoxic, partial curve] | Potency (HeLa) 10 µM [rising, partial curve]
inactive: Potency [16]

Nc1ccn([C@@H]2O[C@H](CO)[C@@H](O)C2(F)F)c(=O)n1
active: Potency (CAOV3) 631 nM and 1.12 µM
inconclusive: Potency (Tov-21-G) 0.224 µM [cytotoxic, full curve, poor fit]

Nc1cc(C(F)(F)F)c(-c2cc(N3CCOCC3)nc(N3CCOCC3)n2)cn1
inconclusive: Potency [15] 3.69 µM [cytotoxic, partial curve] | Potency [16] 8.27 µM [cytotoxic, single point] | Potency [3] 4.65 µM [cytotoxic, partial curve] | Potency [4] 4.65 µM [cytotoxic, partial curve] | Potency (CAOV3) 10 µM [cytotoxic, partial curve] | Potency (Tov-21-G) 3.98 µM [cytotoxic, full curve]
active: Potency [9] 5.85 µM | Potency [10] 0.743 µM | Potency (HeLa) 3.98 µM | Potency (Hek293T) 3.16 µM

COC(=O)[C@]12CCC(C)(C)C[C@@H]1[C@@H]1C(=O)C=C3[C@@]4(C)C=C(C#N)C(=O)C(C)(C)[C@@H]4CC[C@@]3(C)[C@]1(C)CC2
active: Potency [16] 4.14 µM | Potency [9] 1.65 µM

COc1cc(O)c2c(c1)C1OC1C[C@H](O)[C@H](O)C(=O)C=CC[C@H](C)OC2=O (stereo partly specified)
inconclusive: Potency [9] 0.0131 µM [cytotoxic, full curve, poor fit] | Potency [4] 13.1 µM [cytotoxic, partial curve]
active: Potency [15] 4.65 µM | Potency [16] 5.85 µM | Potency [2] 3.32 µM | Potency [14] 3.72 µM | Potency [8] 2.35 µM

C=C(C)C(=O)O[C@H]1C[C@@](C)(O)C2(O)CCC(C)(/C=C3/OC(=O)C(COC)=C31)O2 (stereo partly specified)
active: Potency (Tov-21-G) 10 µM
inconclusive: Potency (CAOV3) 20 µM [cytotoxic, single point] | Potency (Hek293T) 10 µM [cytotoxic, partial curve, poor fit]

CO[C@@H]1[C@@H](OC)[C@H](C)[C@@](O)(CC(=O)O)O[C@H]1[C@H](C)[C@H]1O[C@@]2(CC[C@@](C)([C@H]3CC[C@@](C)([C@@H]4O[C@@H]([C@H]5O[C@](C)(O)[C@H](C)C[C@@H]5C)C[C@@H]4OC4C[C@H](OC)[C@@H](OC)[C@H](C)O4)O3)O2)C[C@H](O)[C@H]1C (stereo partly specified)
active: Potency [3] 1.17 µM | Potency [4] 0.657 µM | Potency (CAOV3) 14.1 µM | Potency (Hek293T) 2.82 µM | Potency (Tov-21-G) 11.2 µM
inconclusive: Potency [9] 14.7 µM [cytotoxic, partial curve] | Potency (HeLa) 22.4 µM [cytotoxic, partial curve, poor fit]

CC(Oc1cc(-n2cnc3ccc(CN4CCN(C)CC4)cc32)sc1C(N)=O)c1ccccc1C(F)(F)F (stereo unspecified)
inconclusive: Potency (CAOV3) 39.8 µM [cytotoxic, single point] | Potency (Hek293T) 5.01 µM [cytotoxic, full curve, poor fit] | Potency (Tov-21-G) 2.82 µM [cytotoxic, full curve]
